Measurements: PubChem BioAssay AID686979 (National Center for Advancing Translational Sciences (NCATS), 2013)
Screen size: about 420,000 compounds; about 50,000 (12%) were called active. Inconclusive means that the source gave no clear call. Such entries were picked first, then a sample of the others. Calls follow the shape of the dose curve; as a rule, active = well fitted inhibition curve with a large enough effect; inconclusive = small, poorly fitted or top-dose-only effect; inactive = flat fitted curve, though single readings scatter. No potency is given beside an inconclusive call; the fits are too rough.

test: qHTS for Inhibitors of human tyrosyl-DNA phosphodiesterase 1 (TDP1): qHTS in cells in presence of CPT; conditions: chicken DT40 Tdp1-/-;hTDP1 cells + 20 nM CPT, ATP luminescence, 48 h; activity change, negative = growth inhibition: at 46.2 µM (top of the series) unless noted; also: nearly all actives have a fitted effect of over 55% in size
In short: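 Chicken DT40 Tdp1-/- cells stably complemented with human TDP1 were seeded at 400 cells/well in medium containing 20 nM camptothecin, exposed to pin-transferred compounds, and grown at 37 °C for at least 48 hr. Viability was read as ATP luminescence.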
% is scaled to controls: 0 for no effect and ±100 for the full control effect; potency is read from the fitted curve at half-maximal effect; tags tell the direction and shape of the fitted curve.

Q: With `Cc1ccc(SC/C(O)=C(\C#N)c2nc3ccccc3n2C)cc1` as the compound, how does the Potency read?
A: Its Potency is inconclusive [inhibitor, single point].

Q: For `COc1cccc(C(=O)Nc2cc(Cl)c(O)c(Cl)c2)c1`, which Potency is on record?
A: Its Potency is “inactive”.

Q: With `O=C1CC(c2ccco2)CC(O)=C1C=Nc1cc(Cl)cc(Cl)c1` (stereo unspecified) as the compound, how does the Potency read?
A: The Potency was inconclusive [inhibitor, single point].

Q: For `O=C(Nc1ccncc1)c1cccc(S(=O)(=O)N2CCc3ccccc32)c1`, which Potency is on record?
A: Its Potency is active: 5.8 µM.

Q: With `c1ccc(-c2cc(NCCN3CCCCC3)c3ccccc3n2)cc1` as the compound, how does the Potency read?
A: The Potency was active: 23.1 µM.

Q: Which Potency does the source give for `O=C(c1sc2ccccc2c1Cl)N1CCN(CCc2ccccn2)CC1` here?
A: The Potency was inconclusive [inhibitor, single point].

Q: With `O=C(Nc1nnc([C@H]2C[C@H](O)[C@@H](CO)O2)s1)c1ccc(Oc2ccccc2)cc1` as the compound, how does the Potency read?
A: The Potency was inconclusive [inhibitor, partial curve].

Q: With `O=C(NCc1ccccc1)N1CCC(Cc2ccccc2)CC1` as the compound, how does the Potency read?
A: Its Potency is inconclusive [inhibitor, single point].

Q: Which Potency does the source give for `Clc1ccc(-n2cc(-c3ccc(Br)cc3)[n+]3c2CCCCC3)cc1` here?
A: The Potency was active: 5.8 µM.

Q: Which Potency does the source give for `CN1CCN(c2ccc(S(=O)(=O)Nc3ccccc3)cc2[N+](=O)[O-])CC1` here?
A: Its Potency is inconclusive [inhibitor, partial curve, poor fit].

Q: For `CCCCc1nn2c(=O)cc(COC(=O)c3ccc(NC(=O)C4CCCCC4)cc3)nc2s1`, which Potency is on record?
A: The Potency was inconclusive [inhibitor, single point].

Q: For `CSc1ccccc1NC(=O)c1cc(C2CC2)on1`, which Potency is on record?
A: The Potency was inconclusive [inhibitor, single point].

Q: Which Potency does the source give for `C[C@@]12CCC=C[C@H]1[C@H](c1ccc(/C=C/c3ccccc3)cc1F)N(Cc1ccccc1)C2=O` here?
A: The Potency was active: 14.6 µM.

Q: With `O=C(COC(=O)CCNS(=O)(=O)c1cccc(C(F)(F)F)c1)NC(=O)NC1CCCCC1` as the compound, how does the activity change, negative = growth inhibition read?
A: The activity change, negative = growth inhibition was inconclusive: -36.9% [inhibitor].

Q: With `Cc1ccc(N(C)C(=O)C2CCCN(c3ncnc4c3nc3n4CCCCC3)C2)cc1C` (stereo unspecified) as the compound, how does the Potency read?
A: Its Potency is inconclusive [inhibitor, partial curve].

Q: With `Cc1ccnc(SCC(=O)N2CCc3ccccc32)n1` as the compound, how does the Potency read?
A: Its Potency is “inactive”.

Q: With `S=c1nccc(-c2ccc3c(c2)CCO3)[nH]1` as the compound, how does the Potency read?
A: Its Potency is active: 10.3 µM.

Q: Which Potency does the source give for `COc1ccccc1C=NN=C(N)C(N)=NN=Cc1ccccc1OC` here?
A: The Potency was inconclusive [inhibitor, single point].

Q: With `O=C(c1ccccc1)c1cccn1CC(=O)N1CCc2ccccc2C1` as the compound, how does the Potency read?
A: Its Potency is “inactive”.

Q: With `CC12CCC(C/C1=N/NC(=O)Nc1ccccc1)C2(C)C` (stereo unspecified) as the compound, how does the Potency read?
A: The Potency was inconclusive [inhibitor, single point].

Q: For `Cc1cccc(N2CCN(C3(c4ccccc4)C(=O)c4ccccc4C3=O)CC2C)c1` (stereo unspecified), which Potency is on record?
A: Its Potency is “inactive”.

Q: With `Cc1ccc(NC(=O)Nc2ccc(F)c(Cl)c2)cc1` as the compound, how does the Potency read?
A: Its Potency is inconclusive [inhibitor, single point].

Q: With `O=c1[nH]c(CN2CCN(C/C=C/c3ccccc3)CC2)nc2cc(Cl)ccc12` as the compound, how does the Potency read?
A: The Potency was inconclusive [inhibitor, single point].

Q: With `CSc1nsc(SCC(=O)Nc2ccc(F)cc2F)n1` as the compound, how does the Potency read?
A: Its Potency is “inactive”.

Q: Which Potency does the source give for `Cc1ccc(C)c(NC(=S)N/N=C2/CCCCc3ccccc32)c1` here?
A: The Potency was inconclusive [inhibitor, single point].

Q: Which Potency does the source give for `CCCc1cc2c(-c3ccccc3)cc(=O)oc2cc1OCc1ccc(C(=O)O)o1` here?
A: Its Potency is “inactive”.

Q: With `CC(=O)N1CC(C)Sc2ccc(S(=O)(=O)NC3CCCCC3C)cc21` (stereo unspecified) as the compound, how does the Potency read?
A: Its Potency is inconclusive [inhibitor, single point].

Q: Which Potency does the source give for `COc1ccc(C2(CNC(=O)c3ccccc3[N+](=O)[O-])CCOCC2)cc1` here?
A: Its Potency is “inactive”.

Q: For `CCN(Cc1ccccc1)C(c1ccc(Cl)cc1)c1nnnn1C(C)(C)C` (stereo unspecified), which Potency is on record?
A: The Potency was active: 25.9 µM.

Q: With `Cc1ccc(-c2cc(C(=O)NCC(c3ccccc3)N(C)C)c3ccccc3n2)o1` (stereo unspecified) as the compound, how does the Potency read?
A: The Potency was inconclusive [inhibitor, single point].

Q: For `c1cnn2c(-c3ccc4c(c3)CCO4)cnc2c1`, which Potency is on record?
A: The Potency was active: 10.3 µM.

Q: With `CC1CCN(S(=O)(=O)c2cccc(C(=O)N(Cc3ccccc3)c3ccccn3)c2)CC1` as the compound, how does the Potency read?
A: The Potency was inconclusive [inhibitor, single point].

Q: Which Potency does the source give for `COc1cccc(C(c2sc3nc(C)nn3c2O)N2CCc3ccccc3C2)c1` (stereo unspecified) here?
A: The Potency was inconclusive [inhibitor, single point].

Q: With `Cc1ccc(CNS(=O)(=O)c2ccc3c(c2)NC(=O)CO3)cc1` as the compound, how does the activity change, negative = growth inhibition read?
A: Its activity change, negative = growth inhibition is inconclusive: -34.1% [inhibitor].

Q: Which Potency does the source give for `CCc1cccc2c(C(=O)C(NCCCOC)c3ccccc3)c[nH]c12` (stereo unspecified) here?
A: Its Potency is inconclusive [inhibitor, single point].

Q: Which Potency does the source give for `COc1ccccc1CNC(=O)c1cnn2c(C)c(Cc3ccc(F)cc3)c(C)nc12` here?
A: Its Potency is active: 5.8 µM.

Q: Which Potency does the source give for `COc1ccc(CCN2CC(C(=O)NCCN3CCOC3=O)CCC2=O)cc1` (stereo unspecified) here?
A: The Potency was “inactive”.

Q: Which Potency does the source give for `O=C1C=C(/C=C/c2ccccc2)C[C@@H](c2ccc3c(c2)OCO3)C1` here?
A: The Potency was inconclusive [inhibitor, single point].

Q: For `C/C(=N\NC(=O)CC(C)C)c1c(C(F)(F)F)[nH]n(-c2nc3ccccc3s2)c1=O`, which Potency is on record?
A: The Potency was inconclusive [inhibitor, partial curve].

Q: Which Potency does the source give for `CCCN(CC(=O)Nc1ccccc1OC)C(=O)C1CCCC1` here?
A: Its Potency is inconclusive [inhibitor, partial curve].

Q: For `Cc1ccc(NC(=O)C(=O)NCCc2c[nH]c3ccccc23)cc1C`, which Potency is on record?
A: The Potency was “inactive”.

Q: With `CC[C@]12c3[nH]c4ccc(OC)cc4c3CCN1C(=O)C(CC(=O)NCc1cccc(C(F)(F)F)c1)C[C@@H]2C(=O)N1CCN(C(=O)c2ccco2)CC1` (stereo partly specified) as the compound, how does the Potency read?
A: Its Potency is inconclusive [inhibitor, single point].

Q: For `CCOC(=O)c1ccc(NC(=O)CN2C(=O)COc3ccc(Cl)cc32)cc1`, which Potency is on record?
A: Its Potency is active: 13 µM.

Q: Which Potency does the source give for `CC(NC(=O)c1cccs1)C(c1cccs1)N1CCN(Cc2ccccc2)CC1` (stereo unspecified) here?
A: Its Potency is inconclusive [inhibitor, partial curve, poor fit].

Q: Which Potency does the source give for `O=C(NCC1CCN(Cc2ccccc2F)CC1)Nc1cc(F)ccc1F` here?
A: The Potency was “inactive”.

Q: With `Cc1ccc(Cn2ccsc2=NC(=O)COC(=O)C(C)C)cc1` as the compound, how does the Potency read?
A: Its Potency is active: 14.6 µM.
